Data from PubChem BioAssay AID264 (DTP/NCI, 2004).
Inconclusive results are not listed. A number of entries come with more than one value. This is not the full list of results. There may be further records. Results that share an entry are repeats across runs, samples, wells, individuals or studies.

Tested on: nude mice, LX-1 lung xenograft intrarenal, tumor weight T/C
Experiment: NCI In Vivo Anticancer Drug Screen. Data for tumor model Human Lung LX-1 Xenograft (intrarenal inoculation) in NU/NU Swiss (nude) mice
Conditions: endpoint: mean tumor weight change, higher = larger tumour
Procedure: The antitumor activity of compounds was measured in mice bearing transplantable tumors. Survival or tumor size were measured and the results are expressed as the measurement made in the treated group (T) divided by the measurement made in the vehicle treated control group (C). The tumor model used in this assay is Human Lung LX-1 Xenograft (intrarenal inoculation) in NU/NU Swiss (nude) mice

[1] = dose: 50.0 mg/kg/injection, schedule: Q01DX010 (sc), vehicle: saline
[2] = dose: 300.0 mg/kg/injection, schedule: Q04DX003 (sc), vehicle: saline with Tween-80
[3] = dose: 600.0 mg/kg/injection, schedule: Q04DX003 (sc), vehicle: saline with Tween-80
[4] = dose: 50.0 mg/kg/injection, schedule: Q01DX010 (sc), vehicle: Klucel (hydroxypropylcellulose) (HPC)
[5] = dose: 100.0 mg/kg/injection, schedule: Q01DX010 (sc), vehicle: Klucel (hydroxypropylcellulose) (HPC)
[6] = dose: 200.0 mg/kg/injection, schedule: Q01DX010 (sc), vehicle: Klucel (hydroxypropylcellulose) (HPC)
[7] = dose: 400.0 mg/kg/injection, schedule: Q01DX010 (sc), vehicle: Klucel (hydroxypropylcellulose) (HPC)

CNC(=O)OCc1c(COC(=O)NC)c(-c2ccccc2)n(C)c1-c1ccccc1
T/C (dose: 400.0 mg/kg/injection, schedule: Q04DX003 (sc), vehicle: distilled water + Tween-80): 55 % of control and 102 % of control

CC(=O)c1c(O)c(C)c(O)c2c1OC1=CC(=O)C(C(C)=O)C(=O)C12C (configuration not stated)
T/C (dose: 100.0 mg/kg/injection, schedule: Q01DX010 (sc), vehicle: sodium bicarbonate): 36 % of control and 284 % of control

CNNCc1ccc(C(=O)NC(C)C)cc1
T/C [1]: -12 % of control, 12 % of control, 16 % of control

Nc1cc2[nH]cnc2c(=O)[nH]1
T/C [1]: 42 % of control and 94 % of control
T/C (dose: 100.0 mg/kg/injection, schedule: Q01DX010 (sc), vehicle: saline): 35 % of control and 79 % of control

COc1ccc2nc3cc(Cl)ccc3c(NCCNCCNCCNc3c4ccc(Cl)cc4nc4ccc(OC)cc34)c2c1
T/C (dose: 100.0 mg/kg/injection, schedule: Q01DX010 (sc), vehicle: saline with Tween-80): 78 % of control and 115 % of control

CCC(C(=O)O)C(=O)O.[NH2-].[NH2-].[Pt+2]
T/C (dose: 75.0 mg/kg/injection, schedule: Q04DX003 (sc), vehicle: saline): 64 % of control and 94 % of control
T/C (dose: 150.0 mg/kg/injection, schedule: Q04DX003 (sc), vehicle: saline): 19 % of control and 69 % of control

OCC1OC(n2cnc3c2NC=NC[C@H]3O)CC1O (some centres not stated)
T/C (dose: 4.0 mg/kg/injection, schedule: Q01DX010 (sc), vehicle: water): 69 % of control, 84 % of control, 112 % of control
T/C (dose: 8.0 mg/kg/injection, schedule: Q01DX010 (sc), vehicle: water): 18 % of control and 47 % of control

CCC1=C[C@H]2CN(CCc3c([nH]c4ccccc34)[C@@](C(=O)OC)(c3cc4c(cc3OC)N(C)[C@H]3[C@@](O)(C(=O)NC)[C@H](OC(C)=O)[C@]5(CC)C=CCN6CC[C@]43[C@@H]65)C2)C1
T/C (dose: 2.0 mg/kg/injection, schedule: Q04DX003 (sc), vehicle: water): 10 % of control and 45 % of control

CC[N+](CC)(CC)CC
T/C (dose: 3.0 mg/kg/injection, schedule: Q01DX010 (sc), vehicle: saline with Tween-80): 54 % of control and 108 % of control
T/C (dose: 6.0 mg/kg/injection, schedule: Q01DX010 (sc), vehicle: saline with Tween-80): 77 % of control and 108 % of control

COc1ccc(S(=O)(=O)N=N/C=C2\C=CC=CN2O)cc1OC
T/C [2]: 38 % of control and 120 % of control

CC(C)NC(=O)OCc1c(COC(=O)NC(C)C)c(-c2ccc(Cl)c(Cl)c2)n2c1CCC2
T/C (dose: 50.0 mg/kg/injection, schedule: Q01DX010 (sc), vehicle: distilled water + Tween-80): 34 % of control and 173 % of control
T/C (dose: 800.0 mg/kg/injection, schedule: Q01DX010 (sc), vehicle: distilled water + Tween-80): 16 % of control, 36 % of control, 47 % of control

COC(=O)Nc1nc2ccc(C3(c4ccc(F)cc4)OCCO3)cc2[nH]1
T/C [2]: 74 % of control and 117 % of control
T/C [3]: 50 % of control and 93 % of control

CCCCNCCCNCCCNC(=O)c1csc(-c2csc(CCNC(=O)C(NC(=O)C(C)C(O)C(C)NC(=O)C(NC(=O)c3nc(C(CC(N)=O)NCC(N)C(N)=O)nc(N)c3C)C(OC3OC(CO)C(O)C(O)C3OC3OC(CO)C(O)C(OC(N)=O)C3O)c3cnc[nH]3)C(C)O)n2)n1 (configuration not stated)
T/C (dose: 8.0 mg/kg/injection, schedule: Q01DX010 (sc), vehicle: saline): 31 % of control, 45 % of control, 65 % of control
T/C (dose: 16.0 mg/kg/injection, schedule: Q01DX010 (sc), vehicle: saline): 14 % of control, 40 % of control, 45 % of control
T/C (dose: 32.0 mg/kg/injection, schedule: Q01DX010 (sc), vehicle: saline): 18 % of control, 28 % of control, 45 % of control
T/C (dose: 64.0 mg/kg/injection, schedule: Q01DX010 (sc), vehicle: saline): 9 % of control and 37 % of control

COc1cccc2c1C(=O)c1c(O)c3c(c(O)c1C2=O)C[C@@](O)(C(=O)CO)C[C@@H]3OC1CC(N)C(OC)C(C)O1 (some centres not stated)
T/C (dose: 1.5 mg/kg/injection, schedule: Q01DX010 (sc), vehicle: saline): 10 % of control, 15 % of control, 124 % of control

O=[N+]([O-])/C=C\c1ccc2c(c1)OCO2
T/C [4]: 56 % of control and 98 % of control
T/C [5]: 76 % of control, 84 % of control, 110 % of control
T/C [6]: 49 % of control and 75 % of control
T/C [7]: 56 % of control and 93 % of control

CC1=C(/C=C/C(C)=C/C=C/C(C)=C/C=O)C(C)(C)CCC1
T/C [3]: 53 % of control and 103 % of control

CN(C)N=Nc1ccc(S(N)(=O)=O)cc1
T/C [7]: -38 % of control, 2 % of control, 4 % of control

CC(=O)O[C@@H]1CO[C@H]2O[C@H]3[C@@H](C(C=O)=C[C@H](O)[C@@H]4C5=C(C(C)C)CC[C@]5(C)CC[C@@]34C)[C@@]2(O)C1=O
T/C (dose: 50.0 mg/kg/injection, schedule: Q04DX003 (sc), vehicle: Klucel (hydroxypropylcellulose) (HPC)): 85 % of control and 159 % of control
T/C (dose: 200.0 mg/kg/injection, schedule: Q04DX003 (sc), vehicle: Klucel (hydroxypropylcellulose) (HPC)): 54 % of control and 87 % of control

CNc1nc(N(C)C)nc(N(C)C)n1
T/C (dose: 50.0 mg/kg/injection, schedule: Q04DX003 (sc), vehicle: water): 52 % of control and 227 % of control

O=CC(NC(=O)N(CCCl)N=O)C(O)C(O)C(O)CO (configuration not stated)
T/C (dose: 3.0 mg/kg/injection, schedule: Q01DX010 (sc), vehicle: Klucel (hydroxypropylcellulose) (HPC)): 21 % of control and 77 % of control

CCc1ncnc2cc(OCC3CO3)c(OC)cc12 (configuration not stated)
T/C (dose: 100.0 mg/kg/injection, schedule: Q04DX003 (sc), vehicle: suspension in saline): 56 % of control and 101 % of control

c1cc(NC2CCCCC2)ccc1CN1CCOCC1
T/C (dose: 200.0 mg/kg/injection, schedule: Q01DX010 (sc), vehicle: saline + Tween-80 + alcohol): 69 % of control and 159 % of control
T/C (dose: 400.0 mg/kg/injection, schedule: Q01DX010 (sc), vehicle: saline + Tween-80 + alcohol): 122 % of control and 173 % of control

CCN(C)N=Nc1ccc(C(N)=O)cc1
T/C [4]: -36 % of control, -18 % of control, 46 % of control
T/C [5]: -93 % of control, 1 % of control, 20 % of control
T/C [6]: -53 % of control and 15 % of control

c1ccc2c(NCCCCCCNc3c4ccccc4nc4ccccc34)c3ccccc3nc2c1
T/C (dose: 10.0 mg/kg/injection, schedule: Q01DX010 (sc), vehicle: Klucel (hydroxypropylcellulose) (HPC)): 56 % of control and 104 % of control
T/C (dose: 20.0 mg/kg/injection, schedule: Q01DX010 (sc), vehicle: Klucel (hydroxypropylcellulose) (HPC)): 37 % of control and 150 % of control

NC(Cc1ccc(N(CCCl)CCCl)cc1)C(=O)O (configuration not stated)
T/C (dose: 10.0 mg/kg/injection, schedule: Q04DX003 (sc), vehicle: Klucel (hydroxypropylcellulose) (HPC)): 51 % of control and 115 % of control
T/C (dose: 20.0 mg/kg/injection, schedule: Q04DX003 (sc), vehicle: Klucel (hydroxypropylcellulose) (HPC)): 29 % of control and 69 % of control

Cc1c(N)nc(C(CC(N)=O)NCC(N)C(N)=O)nc1C(=O)NC(C(=O)NC(C)C(O)C(C)C(=O)NC(C(=O)NCCc1nc(-c2nc(C(=O)NCCCNCCCc3ccccn3)cs2)cs1)C(C)O)C(OC1OC(CO)C(O)C(O)C1OC1OC(CO)C(O)C(OC(N)=O)C1O)c1cnc[nH]1 (configuration not stated)
T/C (dose: 6.0 mg/kg/injection, schedule: Q01DX010 (sc), vehicle: water): 3 % of control, 30 % of control, 94 % of control
T/C (dose: 24.0 mg/kg/injection, schedule: Q01DX010 (sc), vehicle: water): -30 % of control, 37 % of control, 77 % of control

OCCOCC(F)(F)F
T/C (dose: 1200.0 mg/kg/injection, schedule: Q04DX003 (sc), vehicle: saline): 83 % of control, 90 % of control, 111 % of control
T/C (dose: 2400.0 mg/kg/injection, schedule: Q04DX003 (sc), vehicle: saline): 4 % of control, 50 % of control, 101 % of control

O/N=C/c1ccccc1O.O/N=C/c1ccccc1O.[Cu]
T/C (dose: 800.0 mg/kg/injection, schedule: Q04DX003 (sc), vehicle: saline with Tween-80): 60 % of control and 100 % of control

CC[C@@]1(O)C(=O)OCc2c1cc1n(c2=O)Cc2cc3cc(O)ccc3nc2-1
T/C (dose: 16.0 mg/kg/injection, schedule: Q04DX003 (sc), vehicle: suspension in saline): -98 % of control and 18 % of control
T/C (dose: 64.0 mg/kg/injection, schedule: Q04DX003 (sc), vehicle: suspension in saline): -97 % of control, 1 % of control, 4 % of control
T/C (dose: 128.0 mg/kg/injection, schedule: Q04DX003 (sc), vehicle: suspension in saline): -99 % of control, -52 % of control, 5 % of control

N=c1ccn2c(n1)OC1C(O)C(CO)OC12 (configuration not stated)
T/C (dose: 400.0 mg/kg/injection, schedule: Q04DX003 (sc), vehicle: saline): 27 % of control and 60 % of control
